Laboratory results from the supplement of paper PMC4967469.
Lines with a small IC50 respond at low doses; fits outside the tested doses are given as limits. AUC is the area under the same curve over the 256-fold range up to the top dose, as a fraction: 1 means no effect, lower means more sensitive. For some assays here: Where the top dose is marked as inferred, it is not printed in the source and was worked back from the curve model.

Tests used:
Assay in all cases: Viability of human cancer cell lines after 72 h of drug (GDSC screen)
JW-7-52-1 = compound: CCC(=O)N1CCN(c2ccc(-n3c(=O)ccc4cnc5ccc(-c6cnc7ccccc7c6)cc5c43)cc2C(F)(F)F)CC1 [JW-7-52-1]; conditions: top dose 1.2 µM; top dose inferred
Method: (§1)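 Human cancer cell lines in 384-well plates, medium with 10% serum, drug for 72 h over a 256-fold dose range (nine 2-fold or five 4-fold steps up to the top dose). Adherent lines were fixed and stained with the nucleic acid dye Syto60, suspension lines read with resazurin; signal relative to control wells, capped at 0 and 100%. One two-parameter sigmoid per drug and line, fitted in a mixed model over all curves with the slope shared within a line.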

Z-LLNle-CHO = compound: CCCC[C@@H](C=O)NC(=O)[C@H](CC(C)C)NC(=O)[C@H](CC(C)C)NC(=O)OCc1ccccc1 [Z-LLNle-CHO]; conditions: top dose 2.56 µM; top dose inferred
Method: as §1

ZG-10 = compound: CN(C)C/C=C/C(=O)Nc1ccc(C(=O)Nc2cccc(Nc3nccc(-c4cccnc4)n3)c2)cc1 [ZG-10]; conditions: top dose 10 µM; top dose inferred
Method: as §1

Tubastatin A = compound: CN1CCc2c(c3ccccc3n2Cc2ccc(C(=O)NO)cc2)C1 [Tubastatin A]; conditions: top dose 20 µM
Method: as §1

Rapamycin = compound: CO[C@H]1C[C@@H]2CC[C@@H](C)[C@@](O)(O2)C(=O)C(=O)N2CCCC[C@H]2C(=O)O[C@H]([C@H](C)C[C@@H]2CC[C@@H](O)[C@H](OC)C2)CC(=O)[C@H](C)/C=C(\C)[C@@H](O)[C@@H](OC)C(=O)[C@H](C)C[C@H](C)/C=C/C=C/C=C/1C [Rapamycin]; conditions: top dose 0.1 µM; top dose inferred
Method: as §1

XL-880 = compound: COc1cc2c(Oc3ccc(NC(=O)C4(C(=O)Nc5ccc(F)cc5)CC4)cc3F)ccnc2cc1OCCCN1CCOCC1 [XL-880]; conditions: top dose 5.12 µM; top dose inferred
Method: as §1

Temozolomide = compound: Cn1nnc2c(C(N)=O)ncn2c1=O [Temozolomide]; conditions: top dose 30 µM
Method: as §1

CI-1040 = compound: O=C(NOCC1CC1)c1ccc(F)c(F)c1Nc1ccc(I)cc1Cl [CI-1040]; conditions: top dose 10 µM; top dose inferred
Method: as §1

IPA-3 = compound: Oc1ccc2ccccc2c1SSc1c(O)ccc2ccccc12 [IPA-3]; conditions: top dose 32 µM; top dose inferred
Method: as §1

Cell Line	AUC (JW-7-52-1)	IC50 (JW-7-52-1)	AUC (Z-LLNle-CHO)	IC50 (Z-LLNle-CHO)	AUC (ZG-10)	IC50 (ZG-10)	AUC (Tubastatin A)	IC50 (Tubastatin A)	AUC (Rapamycin)	IC50 (Rapamycin)	AUC (XL-880)	IC50 (XL-880)	AUC (Temozolomide)	IC50 (Temozolomide)	AUC (CI-1040)	IC50 (CI-1040)	AUC (IPA-3)	IC50 (IPA-3)
LS-123 (large intestine, adherent)	0.498	0.0738 µM	0.753	1.12 µM	0.741	3.93 µM	0.981	> 20 µM	0.816	0.0802 µM	0.836	> 5.12 µM	0.974	> 30 µM	0.899	> 10 µM	0.753	14 µM
KELLY (neuroblastoma, adherent)	0.754	0.372 µM	0.767	0.871 µM	0.799	4.29 µM	0.82	10.2 µM	0.948	> 0.1 µM	0.478	0.281 µM	0.988	> 30 µM	0.896	> 10 µM	0.873	26 µM
CGTH-W-1 (thyroid, adherent)	0.59	0.132 µM	0.939	> 2.56 µM	0.658	1.71 µM	0.985	> 20 µM	0.929	> 0.1 µM	0.559	0.463 µM	0.985	> 30 µM	0.854	7.85 µM	0.986	> 32 µM
LU-65 (large cell lung carcinoma, suspension)	0.839	1.04 µM	0.938	> 2.56 µM	0.982	> 10 µM	0.939	> 20 µM	0.963	> 0.1 µM	0.624	0.749 µM	0.981	> 30 µM	0.979	> 10 µM	0.973	> 32 µM
NCI-SNU-16 (stomach, suspension)	0.72	0.287 µM	0.774	0.89 µM	0.587	1.05 µM	0.991	> 20 µM	0.956	> 0.1 µM	0.878	4.16 µM	0.986	> 30 µM	0.955	> 10 µM	0.99	> 32 µM
MN-60 (B-cell leukaemia, suspension)	0.792	0.568 µM	0.959	> 2.56 µM	0.757	3.57 µM	0.905	> 20 µM	0.814	0.0574 µM	0.805	2.7 µM	0.979	> 30 µM	0.98	> 10 µM	0.907	> 32 µM
NB-4 (acute myeloid leukaemia, suspension)	0.697	0.238 µM	0.991	> 2.56 µM	0.413	0.379 µM	0.623	2.54 µM	0.989	> 0.1 µM	0.523	0.365 µM	0.978	> 30 µM	0.256	0.147 µM	0.717	7.17 µM
NCI-H1975 (lung adenocarcinoma, adherent)	0.301	0.0189 µM	0.713	0.709 µM	0.848	9.16 µM	0.853	19.3 µM	0.79	0.0519 µM	0.787	2.6 µM	0.981	> 30 µM	0.836	8.02 µM	0.88	> 32 µM
LB831-BLC (bladder, adherent)	0.634	0.177 µM	0.716	0.661 µM	0.855	8.14 µM	0.978	> 20 µM	0.987	> 0.1 µM	0.658	0.888 µM	0.986	> 30 µM	0.917	> 10 µM	0.856	26.3 µM
8-MG-BA (glioma, adherent)	0.437	0.051 µM	0.779	0.976 µM	0.694	2.11 µM	0.926	> 20 µM	0.897	> 0.1 µM	0.649	0.805 µM	0.925	> 30 µM	0.775	3.71 µM	0.902	> 32 µM
C2BBe1 (large intestine, adherent)	0.699	0.296 µM	0.812	1.6 µM	0.964	> 10 µM	0.976	> 20 µM	0.786	0.0495 µM	0.831	3.88 µM	0.984	> 30 µM	0.51	0.666 µM	0.804	18.6 µM
ONS-76 (medulloblastoma, adherent)	0.601	0.145 µM	0.751	0.902 µM	0.629	1.47 µM	0.858	18.5 µM	0.951	> 0.1 µM	0.796	2.61 µM	0.983	> 30 µM	0.614	1.32 µM	0.984	> 32 µM
JJN-3 (haematopoietic neoplasm, suspension)	0.579	0.118 µM	0.691	0.488 µM	0.733	2.48 µM	0.917	> 20 µM	0.788	0.0355 µM	0.819	2.25 µM	0.985	> 30 µM	0.7	2.02 µM	0.595	3.47 µM
SK-MEL-2 (melanoma, adherent)	0.725	0.335 µM	0.916	> 2.56 µM	0.583	1.06 µM	0.986	> 20 µM	0.961	> 0.1 µM	0.964	> 5.12 µM	–	–	0.5	0.624 µM	0.987	> 32 µM
A704 (kidney, adherent)	0.481	0.0667 µM	0.721	0.662 µM	0.785	4.15 µM	–	–	0.917	> 0.1 µM	0.608	0.625 µM	0.988	> 30 µM	0.927	> 10 µM	0.784	13.2 µM
